Several values for one entry are separate records, joined by “and”; a condition that tells them apart may be missing. Equal values may be shown once. Where a name gives a salt, the structure may show the parent alone. ± gives the standard deviation of the averaged measurements. In all, about 1,000 compounds went through this assay and about 15 (2%) showed an effect of 50% or more. Some of the results follow.
System: HFF
Test: uninfected host cell viability relative to vehicle control; higher = less host cell toxicity
Conditions: 5 µM; 72 h; oxygen 21 %
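Also: confluent HFF monolayers, run in parallel with the Toxoplasma growth screen as a host toxicity counterscreen.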

SMILES | uninfected host cell viability
COC(=O)[C@@H]1CC2=CC(=O)CC[C@]2(C)[C@@]23O[C@@H]2C[C@@]2(C)[C@@H](CC[C@@]24CCC(=O)O4)[C@H]13 [Eplerenone] | 88.14 ± 0.81%
CC(C)(C)[N+]([O-])=Cc1ccc(S(=O)(=O)O)cc1S(=O)(=O)O | 98.3 ± 1.5%
CCS(=O)(=O)N1CCC[C@@H]2CN3CCc4cc(OC)ccc4[C@@H]3C[C@@H]21 | 85.4 ± 2.9%
CC(CCCCC(=O)Nc1ccc(C(F)(F)F)cc1)NCCc1cnc[nH]1 (stereo unspecified) [HTMT dimaleate] | 91.1 ± 3.1%
OCCN(CCO)c1nc(N2CCCCC2)c2nc(N(CCO)CCO)nc(N3CCCCC3)c2n1 [Dipyridamole] | 94.4 ± 1.1%
CCCN(C/C=C/I)C1CCc2cccc(O)c2C1 (stereo unspecified) [8-Hydroxy-PIPAT oxalate] | 87.24 ± 0.84%
CC(C)[C@H](CO)Nc1nc(Nc2ccc(C(=O)O)c(Cl)c2)c2ncn(C(C)C)c2n1 [Purvalanol B] | 87.6 ± 2.2%
COc1cc(COc2cc(N)c(Cl)cc2C(=O)CCC2CCN(CCNS(C)(=O)=O)CC2)cc(OC)c1 | 85.1 ± 2.7%
Cc1cc(C)c(S(=O)(=O)Nc2ccccc2C(F)(F)F)c(C)c1 | 84.68 ± 0.53%
Cc1ccc(=O)n(-c2ccccc2)c1 [Pirfenidone] | 85.4 ± 4.4%
CCC(=O)NC1Cc2ccccc2C(c2ccccc2)C1 (stereo unspecified) | 99.58 ± 0.97%
Cl/C(=C\n1cncn1)c1ccc(Cl)cc1Cl [Loreclezole hydrochloride] | 85.3 ± 1.3%
CC1(C(=O)O)NCCc2cc(O)c(O)cc21 (stereo unspecified) [Salsolinol-1-carboxylic acid] | 78.4 ± 4%
C[C@@H](CN1CCC(Cc2ccccc2)CC1)[C@@H](O)c1ccc(O)cc1 [Ro 25-6981 maleate] | 87.48 ± 0.33%
N#Cc1cc2nc(O)c(O)nc2cc1[N+](=O)[O-] [CNQX disodium salt] | 88.5 ± 3.2%
COC(=O)[C@H](NC(=O)c1cc(-c2ccccc2)nc2ccccc12)c1ccccc1 | 88.372 ± 0.0059%
N[C@@H](CS(=O)O)C(=O)O [L-Cysteinesulfinic acid] | 96.5 ± 1.4%
Nc1nc(-c2ccc(Cl)c(Cl)c2)c(-c2ccncc2)s1 [CGH 2466 dihydrochloride] | 87.4 ± 1.5%
CCCCCCNC(=O)Nc1ccc(S(=O)(=O)Nc2ccc(CCNC[C@H](O)COc3ccc(O)cc3)cc2)cc1 | 83.4 ± 2.5%
O=C(Nc1ccncc1)c1cc([N+](=O)[O-])ccc1Cl | 99.7 ± 1.5%
CCn1c(=O)[nH]c2cc(Cl)c(Cl)cc21 | 91.6 ± 0.94%
CC[C@@H]1C(=O)OC[C@@H]1Cc1cncn1C [Pilocarpine hydrochloride] | 101 ± 2.5%

SMILES | uninfected host cell viability
CC(=N)NCCCC[C@H](N)C(=O)O [L-NIL hydrochloride] | 83.99 ± 0.74%
COC(=O)C1=C(C)NC(C)=C([N+](=O)[O-])[C@H]1c1ccccc1C(F)(F)F | 68.2 ± 1.7%
O=C(Nc1ccccc1)C12CC1C(=NO)c1ccccc1O2 (stereo unspecified) | 96.71 ± 0.12%
OC[C@H]1O[C@@H](n2cnc3c(N[C@H]4CCC[C@@H]4O)ncnc32)[C@H](O)[C@@H]1O | 88.7 ± 6.8%
COC1(C2=NCCN2)COc2ccccc2O1 (stereo unspecified) | 85.2 ± 2.2%
COc1ccccc1N1CCN(CCCCNC(=O)c2ccc(-c3ccc(C(C)=O)cc3)cc2)CC1 | 80.4 ± 1.5%
CCCCCCCC/C=C\CCCCCCCC(N)=O [Oleamide] | 100 ± 2%
NC(=O)CCCCn1ccc(NC(N)=NCC(F)(F)F)n1 | 85.9 ± 2.3%
COc1ccc(NS(=O)(=O)c2ccc(I)cc2)cc1N1CCN(C)CC1 | 81.6 ± 2.9%
COc1cccc2c1C(=O)c1c(O)c3c(c(O)c1C2=O)C[C@@](O)(C(C)=O)C[C@@H]3O[C@H]1C[C@H](N)[C@H](O)[C@H](C)O1 [Daunorubicin hydrochloride] | 58.7 ± 6.2%
S=C(S)N1CCCC1 [Pyrrolidinedithiocarbamate ammonium] | 65.8 ± 3.5%
NS(=O)(=O)c1cc2c(cc1Cl)NC(C1CC3C=CC1C3)NS2(=O)=O (stereo unspecified) [Cyclothiazide] | 91.88 ± 0.23%
CCOc1cc(C(=O)Nc2ccc(Cl)c(-c3nc4ccccc4[nH]3)c2)cc(OCC)c1OCC | 86.3 ± 2.3%
CN(C)C(=O)n1nnnc1Cc1ccc(-c2ccccc2)cc1 | 77.37 ± 0.2%
O=C(O)c1ccc2cc(-c3ccc(O)c(C45CC6CC(CC(C6)C4)C5)c3)ccc2c1 | 81.6 ± 6.6%
CCC(NC(C)C)C(O)c1ccc(O)c2[nH]c(=O)ccc12 (stereo unspecified) [Procaterol hydrochloride] | 87.5 ± 1.7%
Oc1ccc(-c2nc(-c3ccc(F)cc3)c(-c3ccncc3)[nH]2)cc1 | 91.5 ± 1.5%
CC(C)C[C@H](NC(=O)N1CCCCCC1)C(=O)N[C@H](Cc1cn(C)c2ccccc12)C(=O)N[C@H](Cc1ccccn1)C(=O)O | 95.861 ± 0.0014%
CCCCn1c(=O)c2[nH]c(C34CC5CC(CC3C5)C4)nc2n(CCCO)c1=O | 95.1 ± 6.4%
CS(=O)(=O)Nc1c(O)ccc2c1CCCC2C1=NCCN1 (stereo unspecified) | 84.9 ± 2.8%
Nc1cc(N2CCCCC2)nc(N)[n+]1[O-] [Minoxidil] | 84.51 ± 0.35%
COc1ccc2cc([C@H](C)C(=O)O)ccc2c1 [Naproxen sodium] | 97.1 ± 3.6%

SMILES | uninfected host cell viability
COC(=O)C[C@](O)(CCCC(C)(C)O)C(=O)O[C@@H]1C(OC)=C[C@]23CCCN2CCc2cc4c(cc2[C@H]13)OCO4 [Homoharringtonine] | 28.6 ± 2.8%
NCCCCCc1c[nH]cn1 [Impentamine dihydrobromide] | 89.6 ± 3%
CC(=O)O[C@H]1C(=O)[C@@]2(C)[C@H]([C@H](OC(=O)c3ccccc3)[C@]3(O)C[C@H](OC(=O)[C@H](O)[C@@H](NC(=O)c4ccccc4)c4ccccc4)C(C)=C1C3(C)C)[C@]1(OC(C)=O)CO[C@@H]1C[C@@H]2O [Taxol] | 78.5 ± 1.7%
CCCCC[C@H](O)/C=C/[C@H]1[C@H](O)CC(=O)[C@@H]1C/C=C\CCCC(=O)O [Prostaglandin E2] | 95.2 ± 2.4%
CCCCCCCCCCCCCCCCn1cc[n+](Cc2ccccc2)c1C | 32 ± 6.6%
N[C@@H](Cn1ccc(=O)n(Cc2ccccc2C(=O)O)c1=O)C(=O)O | 84.8% and 85.7%
CCCn1c(=O)c2[nH]c(C3CCCC3)nc2n(CCC)c1=O | 96.9 ± 2.9%
Cc1cc(C(=O)O)sc1C(N)C(=O)O (stereo unspecified) | 86.2 ± 2.2%
CN1C(=O)C(Cc2c[nH]c3ccccc23)NC1=S (stereo unspecified) [Necrostatin-1] | 83.5 ± 2.1%
Cn1cc(/C=C2\C(=O)Nc3cccnc32)c2ccccc21 | 67.8 ± 1.2%
CC(C)(C)c1ccc(S(=O)(=O)/C=C/C#N)cc1 | 94.5 ± 1.1%
CN(C)C(=O)C(=O)c1cn(C)c2cc(Cl)c(C(=O)N3CCC(Cc4ccc(F)cc4)CC3)cc12 | 88.4 ± 2.3%
O=C(O)c1cc(=O)c2c(Cl)cc(Cl)cc2[nH]1 [5,7-Dichlorokynurenic acid] | 92.9 ± 1.2%
Clc1ccccc1CNCC1CCC(CNCc2ccccc2Cl)CC1 (stereo unspecified) | 83.3 ± 1.1%
NC(=O)c1ccc(-c2nc(-c3ccccn3)c(-c3ccc4c(c3)OCO4)[nH]2)cc1 | 92.28 ± 0.26%
O=C(NCCCCN1CCN(c2cccc(Cl)c2Cl)CC1)c1ccc2c(c1)Cc1ccccc1-2 | 88.9 ± 4%
CN/C(=N\CCSCc1nc[nH]c1C)NC#N [Cimetidine] | 85.6 ± 1.4%
N#C/C(=C\c1ccc(O)c(O)c1)C(=O)NCCCc1ccccc1 | 79.3 ± 3.5%
CC1CCN=C(N)S1 (stereo unspecified) [AMT hydrochloride] | 97.7 ± 5.2%
CCOC(=O)c1cnc2c(cnn2CC)c1NN=C(C)C [Etazolate hydrochloride] | 87.5 ± 3.7%
COc1ccc2[nH]c(-c3ccccc3)c(CCNC(C)=O)c2c1 [2-Phenylmelatonin] | 95.2 ± 4.7%
O=C(NCCCN1CCCCCC1)C(c1ccccc1)C1CCCCC1 (stereo unspecified) | 88.8 ± 4.6%

SMILES | uninfected host cell viability
CN1CCC(Nc2ncc3ncnc(Nc4ccc(F)c(Cl)c4)c3n2)CC1 [BIBX 1382 dihydrochloride] | 80.7 ± 2.1%
NC(=O)OCC(COC(N)=O)c1ccccc1 [Felbamate] | 96.2 ± 0.84%
O=C(O)Cc1cccc(OCCCN(Cc2cccc(C(F)(F)F)c2Cl)CC(c2ccccc2)c2ccccc2)c1 [GW 3965 hydrochloride] | 99.5 ± 3.2%
O=c1cc(-c2ccccc2)oc2cc(O)c(O)c(O)c12 [Baicalein] | 69.4 ± 2.4%
O=C(O)CCC/C=C\CC1C(O)CC(O)C1/C=C/C(O)COc1cccc(Cl)c1 (racemic) [(±)-Cloprostenol sodium salt] | 90.9 ± 3.5%
CC[C@H](C)C(=O)O[C@H]1C[C@@H](C)C=C2C=C[C@H](C)[C@H](CC[C@@H]3C[C@@H](O)CC(=O)O3)[C@H]21 [Lovastatin] | 82.4 ± 4.8%
CC1(c2ccccc2)OC(C(=O)O)=CC1=O (stereo unspecified) [Acifran] | 89.6 ± 5.2%
COC(=O)C(Cc1ccc(OCCn2c(=O)sc3cc(C(=O)c4ccccc4)ccc32)cc1)C(=O)OC | 89.383 ± 0.088%
CC(=O)NCC(=O)N[C@H](CCC(=O)O)C(=O)O [N-Acetylglycyl-D-glutamic acid] | 89.2 ± 4.2%
CCCCCCCC/C=C\CCCCCCCC(=O)NCCO [Oleylethanolamide] | 92.81 ± 0.16%
CCCCCCC(=O)OC1CC(C)(C)NC(C)(C)C1 [TMPH hydrochloride] | 87.15 ± 0.47%
Oc1cc2c(cc1O)CN(C(=S)NCCc1ccc(Cl)cc1)CCC2 [Capsazepine] | 101 ± 2.4%
CC1(C)C[C@@H]1C(=O)N/C(=C\CCCCSC[C@H](N)C(=O)O)C(=O)O [Cilastatin sodium] | 91.2 ± 4.5%
CNCCCC12CCC(c3ccccc31)c1ccccc12 [Maprotiline hydrochloride] | 79.5 ± 3%
O=C1Cc2c([nH]c3ccc(Br)cc23)-c2ccccc2N1 [Kenpaullone] | 83.7 ± 1.5%
COc1ccc2c(c1)c(CC(=O)N1CCOCC1)c(C)n2C(=O)c1ccc(Cl)cc1 | 88.1 ± 3.8%
CC(C)(C)n1nc(-c2cccc3ccccc23)c2c(N)ncnc21 [1-Naphthyl PP1] | 83.62 ± 0.48%
C=CCNC(=O)c1cc([N+](=O)[O-])cc2c(=O)[nH]c(Nc3ccc(Cl)c(Cl)c3)nc12 | 87.2 ± 3.2%
CN(C)CCCSC(=N)N [Dimaprit dihydrochloride] | 95.8 ± 1.1%
CC(C)c1ccc2c(c1)CC[C@H]1[C@](C)(CN)CCC[C@]21C [Lylamine hydrochloride] | 87.8 ± 1.4%

From the supplement of paper PMC4894684
